This passage reports cell count results from the supplement of paper PMC4604168 (melanoma cell lines).

Some of the results follow. Many values rest on one well or one pass, so single values are uncertain.

What all share (experiment): cell count relative to DMSO control; melanoma cells; higher = more viable cells
Conditions in all cases: library dose: standard library concentration; 72 h

Experiment [1] has as its system G361.
For experiment [2], the system named is IPC-298.
For experiment [3], the system named is IST-MEL1.
Experiment [4] concerns LB2518-MEL.
In experiment [5] the test system is LOXIMVI.
In experiment [6] the test system is MEL-HO.
In experiment [7] the test system is MZ2-MEL.
In experiment [8] the test system is MeWo.
Experiment [9] deals with RPMI7951.
In experiment [10] the test system is RVH-421.
The subject of experiment [11] is SkMel28.
For experiment [12], the system named is SkMel2.
In experiment [13] the test system is SkMel30.
The test system of experiment [14] is SkMel5.
In experiment [15] the test system is UACC257.
Experiment [16] relates to UACC62.
For experiment [17], the system named is WM115.
Experiment [18] has as its system WM1716.
The test system of experiment [19] is WM3526.
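Further: cells treated in 1,536-well plates, then fixed and DAPI-stained, with nuclei counted from automated high-throughput microscope images.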

On to `C[C@]12O[C@H](C[C@]1(O)CO)n1c3ccccc3c3c4c(c5c6ccccc6n2c5c31)CNC4=O` [Lestaurtinib] + c1cc(-c2cnn3cc(-c4ccc(OCCN5CCCCC5)cc4)cnc23)ccn1 [Dorsomorphin] (first compound 0.02 µM, partner dose 2 µM), for which the cell count in experiment [1] worked out at 64.4%; in experiment [2], 84.5%; in experiment [3], 107%; in [4], 51.5%; in [5], 116%; in experiment [6] it was 87.7%. Further, the cell count in experiment [7] came out at 62.6%; in experiment [8] it was 62.1%; in experiment [9] it was 67.6%; in experiment [10], 103%; in experiment [11], 52.7%; in experiment [12] it was 80.7%. The cell count came out at 93.5% in [13]; 66.8% in [14]; 86.6% in experiment [15]; 70.5% in [16]; 66.9% in experiment [17]; 93.5% in experiment [18]. In [19], the cell count stood at 77.3%.
Consider `C[C@]12O[C@H](C[C@]1(O)CO)n1c3ccccc3c3c4c(c5c6ccccc6n2c5c31)CNC4=O` [Lestaurtinib] + O=C(O)C(=O)Nc1sc2c(c1C(=O)O)CCNC2 [TCS401] (first compound 0.02 µM, partner dose 8.33333 µM), for which the cell count in [1] came out at 78.5%; in experiment [2], 80.4%; in experiment [3], 107%; in [4] it was 67.6%; in experiment [5], 267%; in experiment [6] it was 95.2%. Further, the cell count was 98.6% in experiment [7]; 94.4% in experiment [8]; 137% in experiment [9]; 87.2% in experiment [10]; 74.2% in [11]; 101% in [12]. In addition, the cell count in experiment [13] stood at 109%; in experiment [14], 70.9%; in experiment [15], 102%; in experiment [16] it was 96.2%; in experiment [17], 86.4%; in [18] it was 108%. This compound also registered a cell count in experiment [19] of 82.2%.
For `N.N.[Cl][Pt][Cl]` [cisplatin] + Cc1cc(SCc2sc(-c3ccc(C(F)(F)F)c(F)c3)nc2C)ccc1OCC(=O)O [GW0742] (first compound 8 µM, partner dose 10 µM), the cell count in experiment [1] is 93.8%; in [2] it was 87%; in experiment [3], 88%; in experiment [4], 88%; in experiment [5], 108%; in [6], 83.7%. Further, the cell count in experiment [7] turned out to be 83.1%; in [8] it was 99%; in [9], 102%; in experiment [10], 66.1%; in [11], 92.3%; in [12], 95%. Further, the cell count in experiment [13] was determined as 103%; in experiment [14] it was 93.5%; in [15], 65.5%; in experiment [16] it was 86.8%; in [17], 114%; in experiment [18], 81.9%. The same compound had a cell count in [19] of 87.8%.
On to `N.N.[Cl][Pt][Cl]` [cisplatin] + O=C1NC(=O)/C(=C/c2ccc(-c3ccc(F)cc3O)o2)S1 [AS252424] (first compound 8 µM, partner dose 5 µM), for which the cell count in [1] turned out to be 75.2%; in [2] it was 85.4%; in experiment [3], 89.4%; in experiment [4], 75.4%; in experiment [5], 68.9%; in experiment [6], 80.1%. Moreover, the cell count in experiment [7] was 93.4%; in experiment [8] it was 102%; in experiment [9], 70.8%; in experiment [10] it was 73.3%; in experiment [11], 37.2%; in [12] it was 78.9%. The cell count stood at 99.6% in experiment [13]; 65.6% in [14]; 77.5% in [15]; 86% in experiment [16]; 94.8% in [17]; 97.7% in experiment [18]. Further, the cell count in experiment [19] came to 91%.
